Measurements reported in PubChem BioAssay AID504333 (National Center for Advancing Translational Sciences (NCATS), 2011).
About 16,000 (4.4%) of roughly 360,000 compounds were called active. Inconclusive results, whose numbers are uncertain, are shown with a selection of clear calls. The call rests on the fitted dose curve; in most records, active means well fitted inhibition curve with a large enough effect; inconclusive means small, poorly fitted or top-dose-only effect; inactive means no such curve, though single readings can be large or run the other way. A potency beside an inconclusive call is a rough fit, not a confirmed value.
Further: nearly all actives have a fitted effect of over 60% in size.
On the % scale 0 is the no-effect control and ±100 the full control effect; potency means the concentration at half of the fitted maximal effect; tags describe the fitted curve by direction and shape.

The molecules below were run against Bromodomain adjacent to zinc finger domain protein 2B (Homo sapiens) (UniProt Q9UIF8) (assay: qHTS Assay for Inhibitors of BAZ2B). Conditions: AlphaScreen BAZ2B-H3K14Ac peptide displacement; activity change, negative = inhibition: at 114 µM (top of the series) unless noted.
Sequence of UniProt Q9UIF8 (Q9UIF8 whole entry, looked up, the tested form may be a part): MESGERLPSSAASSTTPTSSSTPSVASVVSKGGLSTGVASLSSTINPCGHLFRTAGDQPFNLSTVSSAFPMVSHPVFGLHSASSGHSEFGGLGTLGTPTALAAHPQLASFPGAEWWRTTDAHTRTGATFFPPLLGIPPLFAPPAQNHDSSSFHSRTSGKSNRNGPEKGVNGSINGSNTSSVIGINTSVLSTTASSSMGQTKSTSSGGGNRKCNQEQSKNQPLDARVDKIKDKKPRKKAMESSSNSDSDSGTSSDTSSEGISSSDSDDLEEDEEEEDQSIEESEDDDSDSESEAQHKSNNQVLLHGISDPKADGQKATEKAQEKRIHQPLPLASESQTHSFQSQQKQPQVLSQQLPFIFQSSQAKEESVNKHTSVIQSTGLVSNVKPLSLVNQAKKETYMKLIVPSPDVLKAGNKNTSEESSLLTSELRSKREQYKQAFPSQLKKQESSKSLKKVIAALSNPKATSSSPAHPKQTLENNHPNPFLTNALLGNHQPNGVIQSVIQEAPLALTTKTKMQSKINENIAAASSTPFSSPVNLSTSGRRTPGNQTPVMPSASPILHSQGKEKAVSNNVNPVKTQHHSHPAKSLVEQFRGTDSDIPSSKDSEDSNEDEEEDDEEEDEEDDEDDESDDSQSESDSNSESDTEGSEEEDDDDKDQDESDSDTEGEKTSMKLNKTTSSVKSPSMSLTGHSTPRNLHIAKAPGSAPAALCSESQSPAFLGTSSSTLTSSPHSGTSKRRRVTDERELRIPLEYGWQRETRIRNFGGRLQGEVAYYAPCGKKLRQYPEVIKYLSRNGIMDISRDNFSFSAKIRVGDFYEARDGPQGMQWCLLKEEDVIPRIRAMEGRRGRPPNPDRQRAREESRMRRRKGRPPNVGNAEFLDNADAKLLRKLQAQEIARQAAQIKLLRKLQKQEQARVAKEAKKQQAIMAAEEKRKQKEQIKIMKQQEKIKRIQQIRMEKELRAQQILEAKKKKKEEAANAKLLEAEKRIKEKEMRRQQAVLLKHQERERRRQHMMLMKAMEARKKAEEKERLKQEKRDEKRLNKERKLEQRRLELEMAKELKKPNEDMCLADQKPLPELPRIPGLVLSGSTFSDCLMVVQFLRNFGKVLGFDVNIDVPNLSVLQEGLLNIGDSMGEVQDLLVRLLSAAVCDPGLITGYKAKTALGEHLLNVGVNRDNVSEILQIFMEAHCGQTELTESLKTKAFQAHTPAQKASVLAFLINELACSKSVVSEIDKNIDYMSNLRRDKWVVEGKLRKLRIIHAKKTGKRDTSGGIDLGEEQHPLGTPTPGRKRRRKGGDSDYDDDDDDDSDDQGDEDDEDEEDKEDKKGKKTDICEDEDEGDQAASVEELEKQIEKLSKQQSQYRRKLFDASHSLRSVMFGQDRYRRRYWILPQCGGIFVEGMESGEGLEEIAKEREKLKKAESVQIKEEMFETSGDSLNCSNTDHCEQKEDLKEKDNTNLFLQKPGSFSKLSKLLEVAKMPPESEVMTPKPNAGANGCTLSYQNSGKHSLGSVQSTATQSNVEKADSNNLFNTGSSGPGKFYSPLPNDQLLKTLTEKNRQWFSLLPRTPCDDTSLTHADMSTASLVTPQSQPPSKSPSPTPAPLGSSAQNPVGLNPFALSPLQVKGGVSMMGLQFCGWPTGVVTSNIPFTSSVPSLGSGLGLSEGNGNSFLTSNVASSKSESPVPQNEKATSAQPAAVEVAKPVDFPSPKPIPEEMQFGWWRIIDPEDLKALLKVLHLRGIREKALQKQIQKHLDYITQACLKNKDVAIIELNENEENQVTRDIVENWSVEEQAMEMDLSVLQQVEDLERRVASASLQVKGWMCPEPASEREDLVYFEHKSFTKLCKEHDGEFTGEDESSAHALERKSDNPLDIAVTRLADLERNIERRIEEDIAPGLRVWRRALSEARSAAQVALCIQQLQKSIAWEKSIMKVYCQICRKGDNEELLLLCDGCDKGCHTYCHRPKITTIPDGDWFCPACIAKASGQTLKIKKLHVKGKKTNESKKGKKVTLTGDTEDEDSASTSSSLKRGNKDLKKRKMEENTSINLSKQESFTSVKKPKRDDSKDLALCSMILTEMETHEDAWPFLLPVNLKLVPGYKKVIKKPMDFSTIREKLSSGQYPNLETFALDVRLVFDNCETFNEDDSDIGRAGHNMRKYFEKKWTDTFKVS
Outline: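 Protein-peptide AlphaScreen: BAZ2B 50 nM, b-H3K14Ac 50 nM, 1x PBS pH 7.4 + 0.01% Tween-20. Preincubation 30 min RT; cpd 30 min RT (top 110 uM); beads 20 min RT, light-protected.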
With `Cc1ccc(SCc2[nH]nc3c2C(c2ccc(C)o2)C(C#N)=C(N)O3)cc1` (stereo unspecified) the Potency was inconclusive: 39.8 µM [inhibitor, partial curve]. With `NC[C@@H]1O[C@H](C23CC4CC(CC(C4)C2)C3)Cc2c1ccc(O)c2O` the Potency was inconclusive: 50.1 µM [inhibitor, partial curve]. With `O=c1nc(N/N=C/c2ccccn2)cn[nH]1` the Potency was active: 2.51 µM. With `COc1ccc(-c2nc(CN3CCC(C(=O)NCCCN4CCN(c5ccccc5F)CC4)CC3)c(C)o2)cc1OC` the Potency was inconclusive: 56.2 µM [inhibitor, partial curve]. `O=C(COC(=O)c1ccc(NC(=O)C2CC=CCC2C(=O)O)cc1)c1ccccc1` (stereo unspecified) was tested, and the Potency was inconclusive: 70.8 µM [inhibitor, single point]. With `COc1ccc(-n2nc([N+](=O)[O-])c(=NCCC3=CCCCC3)n2O)cc1` the Potency was active: 20 µM. In the case of `CN(C)NC(=S)NC(=O)C12CC3CC(CC(C3)C1)C2`, the Potency is reported as inconclusive: 10 µM [inhibitor, full curve]. In the case of `COc1ccc(COC(=O)c2[nH]c3c(c2C)C(=O)CC(c2ccc(OC)c(OC)c2)C3)cc1` (stereo unspecified), the “activity change, negative = inhibition” value is reported as inactive: -4.28%. In the case of `Nc1nc(NC(=O)c2ccco2)nn1-c1ccccc1`, the “activity change, negative = inhibition” value is reported as inactive: -2.14%. For `CN1C=CC=C/C1=C1\SC(=S)N(c2ccccc2)C1=O`, the Potency was inconclusive: 89.1 µM [inhibitor, single point]. With `Cc1cc(C)cc(OCC(=O)OCC(=O)N(C)CC(=O)Nc2ccc(F)cc2)c1` the “activity change, negative = inhibition” value was inactive: 5.49%. `CCNc1ccc(S(=O)(=O)N(C)C)cc1NCC(=O)Nc1ccccc1Cl` was tested, and the Potency was inconclusive: 15.8 µM [inhibitor, full curve, poor fit]. For `CCOC(=S)SCC(=O)N1CCc2ccccc2C1C1C(=O)CCCC1=O` (stereo unspecified), the Potency was inconclusive: 89.1 µM [inhibitor, single point]. With `CSc1cccc(-n2cc(-c3ccc4c(c3)OCO4)[nH]c2=O)c1` the Potency was inconclusive: 79.4 µM [inhibitor, single point]. For `COc1ccc(NC(=O)C2C3C=CC4(O3)C2C(=O)N(CCN2CCCCC2)C4C(=O)NC2CCCC(C)C2C)cc1` (stereo unspecified), the “activity change, negative = inhibition” value was inactive: -3.08%. For `Cc1ccc(C)c(S(=O)(=O)N2C(=S)NC(=O)C2CC(C)C)c1` (stereo unspecified), the “activity change, negative = inhibition” value was inactive: -37.7%. For `COc1ccccc1NC(=O)c1ccc2c(c1)CCN2S(C)(=O)=O`, the “activity change, negative = inhibition” value was inactive: 1.59%. In the case of `CCN(CC)S(=O)(=O)c1ccc(N/N=C/c2cccnc2)nc1`, the Potency is reported as inconclusive: 79.4 µM [inhibitor, single point]. In the case of `Cc1cccc(CN2CCN(Cc3cccc4nonc34)CC2CCO)n1` (stereo unspecified), the “activity change, negative = inhibition” value is reported as inactive: -0.301%. With `CCS(=O)(=O)N1CCC(C(=O)NCCC(C)C)CC1` the “activity change, negative = inhibition” value was inactive: 1.47%. In the case of `CCOC(=O)C1CCCN(C(=O)c2cc3cc(F)ccc3[nH]2)C1` (stereo unspecified), the Potency is reported as inconclusive: 79.4 µM [inhibitor, single point]. For `Cc1ccc2nc3c(c(C(=O)O)c2c1)CCC3`, the “activity change, negative = inhibition” value was inactive: -31.8%. For `C=CCc1cccc2cc(C(=O)N3CCN(C(=O)c4ccccc4)CC3)c(=O)oc12`, the Potency was inconclusive: 63.1 µM [inhibitor, single point]. `CC1=CC(C)(C)Nc2ccc(OC(=O)CN3C(=O)c4cccc5cccc(c45)C3=O)cc21` was tested, and the Potency was active: 50.1 µM. In the case of `COc1ccc(NCC(=O)Nc2ccc(Br)cc2F)c(OC)c1`, the Potency is reported as active: 39.8 µM. For `O=C(c1ccc(F)cc1)N1CCN(c2ccc([N+](=O)[O-])c(N3CCCCC3)c2)CC1`, the Potency was inconclusive: 31.6 µM [inhibitor, full curve]. In the case of `CCOC(=O)C1CCN(Cc2cccc(Oc3ccc(Cl)cc3)c2)CC1`, the Potency is reported as inconclusive: 89.1 µM [inhibitor, single point]. For `COc1ccc(NC(=O)Nc2cccs2)cc1Cl`, the Potency was inconclusive: 89.1 µM [inhibitor, single point]. For `COc1cccc(CN(Cc2ccco2)c2cnc(S(C)(=O)=O)nc2C(=O)Nc2cccc(Cl)c2C)c1`, the Potency was inconclusive: 79.4 µM [inhibitor, single point]. With `COc1cccc(C(=O)Nc2c3c(nn2-c2ccc([N+](=O)[O-])cc2)CS(=O)(=O)C3)c1` the Potency was inconclusive: 79.4 µM [inhibitor, single point]. In the case of `O=C(CN1C(=O)NC(Cc2c[nH]c3ccccc23)C1=O)Nc1cccc(S(=O)(=O)N2CCCCCC2)c1` (stereo unspecified), the Potency is reported as inconclusive: 44.7 µM [inhibitor, partial curve]. For `Cc1ccc([N+](=O)[O-])cc1NC(=S)NC(=O)C(C)(C)C`, the Potency was inconclusive: 89.1 µM [inhibitor, partial curve]. In the case of `CN1C(=O)C(CC(=O)NCCc2ccccc2)N(NC(=O)c2ccc(Cl)cc2)C1=S` (stereo unspecified), the “activity change, negative = inhibition” value is reported as inactive: -10.8%. `O=C(Nc1ccc(S(=O)(=O)N2CCCCC2)cc1)C1CCN(C(=O)c2ccco2)CC1` was tested, and the Potency was inconclusive: 79.4 µM [inhibitor, single point]. With `COC(=O)Cn1cc(C#N)c2ccccc21` the “activity change, negative = inhibition” value was inactive: 0.438%. For `C#CCSc1nsc(SCC#C)c1C#N`, the “activity change, negative = inhibition” value was inactive: -38.6%. With `O=C(O)c1cccc(-c2ccc(/C=c3/sc4nc5ccccc5n4c3=O)o2)c1` the Potency was active: 25.1 µM. With `COc1ccc(N2CCN(C(=O)Cn3nnc(-c4ccccc4N)n3)CC2)cc1` the Potency was inconclusive: 44.7 µM [inhibitor, partial curve]. With `C/C(=N\NC(=O)c1ccc(F)cc1)c1ccccn1` the Potency was active: 10 µM. In the case of `O=C1SC(SCc2ccccc2)=N/C1=C\c1ccco1`, the Potency is reported as active: 12.6 µM. With `CCn1nnnc1SCC(=O)NC1CCCC1` the Potency was inconclusive: 89.1 µM [inhibitor, single point]. For `FC(F)(F)C1CCCN(c2nsc3ccccc23)C1` (stereo unspecified), the Potency was inconclusive: 35.5 µM [inhibitor, partial curve]. `CC(CN1CCCC1)OC(=O)c1ccc(Cl)cc1` (stereo unspecified) was tested, and the “activity change, negative = inhibition” value was inactive: -5.69%. `O=C(O)CSc1nnc(Cc2ccccc2)n1-c1ccccc1` was tested, and the “activity change, negative = inhibition” value was inactive: -6.71%. With `S=c1nc(-c2ccco2)[nH][nH]1` the Potency was inconclusive: 89.1 µM [inhibitor, single point]. For `Fc1ccc(CN2CCN(C(c3ccccc3)c3ccccc3)CC2)cc1`, the Potency was active: 50.1 µM. In the case of `COc1ccc(N2CCN(C(=O)c3ccc(C)c(NC(=O)c4nsc5ccccc45)c3)CC2)cc1`, the Potency is reported as inconclusive: 7.08 µM [inhibitor, full curve]. For `COCc1nnc(NC(=O)c2ccc(S(=O)(=O)N3CCCCCC3)cc2)o1`, the Potency was inconclusive: 89.1 µM [inhibitor, single point]. For `COc1ccccc1-c1nc(C#N)c(N2CCN(C(c3ccccc3)c3ccccc3)CC2)o1`, the Potency was inconclusive: 63.1 µM [inhibitor, single point]. `Cn1c(CC(=O)Nc2ccccc2)cc2ccccc21` was tested, and the “activity change, negative = inhibition” value was inactive: -25.6%. `COc1ccccc1Nc1nn2c(=O)c3ccc(C(=O)NCc4cccs4)cc3nc2s1` was tested, and the Potency was inconclusive: 89.1 µM [inhibitor, partial curve, poor fit]. For `COc1ccccc1/C=C/C=N/n1c(-c2ccccn2)n[nH]c1=S`, the Potency was active: 14.1 µM. `c1cc2c3c(cccc3c1)NC1(CCC3(CC1)Nc1cccc4cccc(c14)N3)N2` was tested, and the Potency was active: 28.2 µM. In the case of `COCCN1C(=O)c2[nH]nc(-c3ccccc3O)c2C1c1ccc(OCc2ccccc2)c(OC)c1` (stereo unspecified), the Potency is reported as inconclusive: 25.1 µM [inhibitor, full curve]. With `CCCN(CC(=O)Nc1ccccc1OC)C(=O)c1ccc(S(=O)(=O)Nc2ccccc2)cc1` the “activity change, negative = inhibition” value was inactive: 8.14%. In the case of `CCOc1ccc(CCN2C(=O)c3cccnc3C2=O)cc1OCC`, the Potency is reported as inconclusive: 89.1 µM [inhibitor, single point]. In the case of `Cn1c(=O)[nH]c(=O)c2[nH]c(N(Cc3ccccc3)Cc3ccccc3)nc21`, the Potency is reported as inconclusive: 35.5 µM [inhibitor, partial curve]. `Cc1cc(S(=O)(=O)Nc2ccc(N3CCOCC3)cc2)ccc1Br` was tested, and the Potency was inconclusive: 50.1 µM [inhibitor, partial curve]. With `CCCNC(=O)c1ccc2c(c1)C1C3CCC(C3)C1C(c1ccccc1)N2` (stereo unspecified) the Potency was inconclusive: 89.1 µM [inhibitor, single point]. `O=C(Nc1cc(C(F)(F)F)cc(C(F)(F)F)c1)Nc1cnn(-c2ccc([N+](=O)[O-])cc2)c1C(F)(F)F` was tested, and the “activity change, negative = inhibition” value was inactive: -0.638%. For `COc1ccc2c(c1)c1c(c(=O)n(-c3ccccc3C)c(=O)n1CC(=O)NCc1ccc(C)cc1)n2C`, the “activity change, negative = inhibition” value was inactive: -15.1%. In the case of `N#C/C(=C\c1ccc([N+](=O)[O-])cc1)C(=O)Nc1ccccc1O`, the Potency is reported as inconclusive: 70.8 µM [inhibitor, single point]. `COC(=O)c1ccccc1NC(=O)Cn1cc(S(=O)(=O)Cc2ccccc2F)c2ccccc21` was tested, and the Potency was inconclusive: 89.1 µM [inhibitor, single point]. For `Cc1cc([N+](=O)[O-])nn1CC(=O)N/N=C/c1ccc(O)cc1O`, the Potency was active: 89.1 µM. With `c1ccc(COc2ccc(OCCCCN3CCCCC3)cc2)cc1` the Potency was active: 39.8 µM. With `COc1cc(N=C2C(=O)N3CCCc4cccc2c43)cc(OC)c1` the Potency was inconclusive: 50.1 µM [inhibitor, partial curve]. For `CCCCc1ccc(-n2nc3cc(C)c(NC(=O)Cc4ccccc4)cc3n2)cc1`, the Potency was inconclusive: 89.1 µM [inhibitor, single point]. `O=C1C(=O)c2ccccc2C(O)=C1c1cccc([N+](=O)[O-])c1` was tested, and the Potency was inconclusive: 50.1 µM [inhibitor, partial curve]. `O=C(O)C1CCN(C(=O)COc2ccc3c4c(c(=O)oc3c2)CCC4)CC1` was tested, and the Potency was inconclusive: 89.1 µM [inhibitor, partial curve, poor fit]. In the case of `N=C1C(c2nc(-c3ccc(F)cc3)cs2)=C(O)CN1CCCN1CCOCC1`, the Potency is reported as inconclusive: 89.1 µM [inhibitor, single point]. `COC(=O)N1C(=O)[C@@](c2ccc(OC)cc2)(C(C)C)N1C(=O)OC` was tested, and the “activity change, negative = inhibition” value was inactive: -22.9%.
